# Screen size: about 110,000 compounds; about 230 (0.21%) showed an effect of 50% or more. Some of the results follow.
# Biological target: DPAP1 (Plasmodium falciparum, UniProt Q8IIJ9)
# Assay: primary screen, percent inhibition; read by cleavage of a fluorogenic dipeptide substrate; higher = more effect of the substance
# Design: species or system P. falciparum D10 trophozoite lysates; single well
# 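Also: 30 min substrate incubation versus DMSO and 10 µM JCP410 controls.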
# Chain of DPAP1 (Q8IIJ9 whole entry, looked up): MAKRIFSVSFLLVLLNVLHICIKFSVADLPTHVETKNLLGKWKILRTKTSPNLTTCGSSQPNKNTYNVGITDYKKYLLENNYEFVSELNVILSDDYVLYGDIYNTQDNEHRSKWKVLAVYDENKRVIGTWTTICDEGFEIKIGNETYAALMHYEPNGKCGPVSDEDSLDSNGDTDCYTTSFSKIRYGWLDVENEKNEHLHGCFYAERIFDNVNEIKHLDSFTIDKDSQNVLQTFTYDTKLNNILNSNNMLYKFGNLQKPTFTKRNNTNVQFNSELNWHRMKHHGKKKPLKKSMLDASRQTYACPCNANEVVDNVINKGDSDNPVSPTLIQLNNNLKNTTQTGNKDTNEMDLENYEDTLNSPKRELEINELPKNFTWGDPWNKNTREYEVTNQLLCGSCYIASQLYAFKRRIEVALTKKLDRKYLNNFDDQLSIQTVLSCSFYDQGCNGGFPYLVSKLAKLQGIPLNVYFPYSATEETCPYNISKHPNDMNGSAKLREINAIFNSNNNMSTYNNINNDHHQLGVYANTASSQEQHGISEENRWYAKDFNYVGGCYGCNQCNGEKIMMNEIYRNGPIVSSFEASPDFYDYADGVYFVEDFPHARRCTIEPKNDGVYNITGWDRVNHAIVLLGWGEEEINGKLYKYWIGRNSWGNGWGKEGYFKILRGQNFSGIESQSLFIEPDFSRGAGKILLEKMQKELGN
row,SMILES,% Inhibition @ 10 uM [%]
1,CCOC(=O)c1c(-c2ccccc2)csc1NC(=O)c1cc(=O)c2cc(C)ccc2o1,-3.24
2,N#Cc1cc2c(N)c(C(N)=O)sc2nc1N,-3.77
3,COc1ccccc1Oc1nc2c(c(=O)n(Cc3ccc(Cl)cc3Cl)c(=O)n2C)n1C,0.279
4,CC(=O)C1=C(O)C(=O)N(CCN(C(C)C)C(C)C)C1c1ccc(O)cc1 (centres unmarked),-0.884
5,Cc1nc2cc(-c3cccc(F)c3)nn2c(C)c1CCC(=O)NC1CCN(Cc2ccccc2)CC1,1.05
6,O=C(c1ccccc1)N1CC(COc2ccccc2)OC(c2ccco2)O1 (centres unmarked),-7.55
7,COc1ccccc1OCc1ccc(C(=O)N2N=C(C(F)F)CC2(O)C(F)F)cc1 (centres unmarked),0.389
8,CC1=CC(C)C(COC(=O)CN2CCCCC2)C(C)C1 (centres unmarked),3.15
9,CCN(CC)CCOC(=O)C(c1ccccc1)c1ccccc1,-1.29
10,Cc1ccc(OCCN2C(=O)S/C(=C\c3ccc(C)o3)C2=O)cc1,0.13
11,COCCNC(=O)NC1(C(F)(F)F)Oc2cc(Cl)c(Cl)cc2O1,2.06
12,CC(=O)Nc1sc2c(c1C(c1ccccn1)N1CCN(C)CC1)CCCC2 (centres unmarked),8.44
13,O=Cc1cn(CC(=O)NCCc2ccccc2)c2ccccc12,-0.971
14,CC1=CC(C)(C)N(C(=O)CN2C(=O)CCC2=O)c2ccccc21,-3.26
15,O=C(Nc1ccccc1)NC1CCCC1,-1.62
16,COc1cc(CN2CCN(C)CC2)cc2c1OCO2,4.03
17,CCOc1cc(/C=c2/sc3nc4ccccc4n3c2=O)ccc1OC(C)C(=O)O (centres unmarked),-4.51
18,CCNc1ccccc1-c1nc2ccccc2nc1O,-2.42
19,COc1ccc(S(=O)(=O)N2CCCCC2)cc1Br,-1.1
20,CC(=O)N(C)c1ccc(NC(=O)COc2ccc(Br)cc2C)cc1,-1.6
21,CCCCSc1nnc2c(n1)[nH]c1ccc(C)cc12,44.7
22,CCOC(=O)c1nnn(-c2nc(OC)nc(N(C)C)n2)c1-c1ccccc1,-8.28
23,Cc1cc2cc([N+](=O)[O-])ccc2n1Cc1ccccc1,3.9
24,O=C(CCCn1sc2ccccc2c1=O)NCc1cccnc1,0.655
25,OC(c1ccccn1)(c1ccccn1)c1ccccn1,-9.07

row,SMILES,% Inhibition @ 10 uM [%]
1,COc1ccc(-c2cc3ccccc3n2CC(O)CNC(CO)(CO)CO)cc1 (centres unmarked),-1.81
2,CCOc1ccccc1/N=C1/C=C(O)CC(c2ccc(OC)cc2)C1 (centres unmarked),0.851
3,CCC(C)NC(=O)c1sc2nc(C)cc(C)c2c1-n1cccc1 (centres unmarked),0.413
4,O=C(Cn1ncc2c3ccccc3nc-2c1O)N1CCc2ccccc2C1,5.49
5,OCCN1CCN(CCc2ccccc2)CC1,-0.603
6,Cc1ccccc1Cc1c(C)nc2nc(SCC(=O)NC(C)(C)C)nn2c1C,-0.363
7,O=S(=O)(c1ccc(N2CCN(CCO)CC2)nc1)N1CCOCC1,0.245
8,CCCN1CCC(Nc2cccc(SC)c2)CC1,3.05
9,Cc1cc(=O)oc2c3c(ccc12)OCN(Cc1ccco1)C3,6.66
10,COc1ccccc1-c1c(C)nn2c(N)c(-c3ccc(Cl)cc3)cnc12,-1.24
11,CC(NC(=O)C(=O)NCc1ccco1)C(c1cccs1)N1CCN(C)CC1 (centres unmarked),-4.74
12,Cn1nc(N)c2c(-c3ccc(Cl)cc3)c(C#N)c(N)nc21,2.48
13,CCCCNC(=S)NCc1ccc2[nH]c(C)cc2c1,-1.89
14,COc1cc2c(cc1OC)C(c1cc(OC)c(O)c(OC)c1)NCC2 (centres unmarked),-3.62
15,COC(=O)c1cccnc1NC(=S)NC1CCCCC1,10
16,COc1ccc2oc(-c3ccccc3)c(C(=O)Nc3nccs3)c2c1,-4.93
17,CCCCCOC(=O)Nc1ccc(S(=O)(=O)Nc2ccc(F)cc2)cc1,6.86
18,Cc1ccccc1CNC(=O)Cn1nc(C)c2sc3ccccc3c2c1=O,-7.87
19,Cn1c(=O)c2c(n3c4ccccc4nc13)NC(=O)CC2c1ccc(OCc2ccccc2F)cc1 (centres unmarked),0.883
20,CCN(CC)c1ccc(C(=O)c2ccccc2C(=O)O)c(O)c1,-3.6
21,CCOC(=O)C1=C(N)Oc2c(c(O)nc3ccc(C)cc23)C1c1ccc(OC)cc1 (centres unmarked),3.93
22,COc1cc(Cc2nnc(C(=O)NCc3ccccc3Cl)o2)cc(OC)c1OC,-1.14
23,Cc1nnc(SCC(=O)NCc2ccc3c(c2)OCO3)c2nn(-c3ccccc3)c(C)c12,-1.95
24,O=C(C1CCCN(c2ncnc3c2nc2n3CCCCC2)C1)N1CCCC1 (centres unmarked),-4.51
25,CC(=O)Nc1ccc(N/C=C(\C#N)c2nc3cc(Cl)ccc3o2)cc1,2.08
